# Results from the supplement of paper PMC10369915.
# This is one part of the list. Cut-off read from the data, not from the text of the source: active = 3.2 or more and inactive = the rest. Only a few entries rise above the background.
# Target: SHP2 C-SH2 domain E139D
# Test: enrichment score (SH2-bound / input frequency) (ratio); bacterial display of known human phosphotyrosine sites (pTyr-Var adds point mutants) read by sequencing; higher = stronger binding; tyrosines were phosphorylated by kinases first
# Conditions: peptide library: pTyr-Var
# 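Note: displayed peptides selected on beads carrying the immobilized SH2 domain, with library peptides lacking any tyrosine serving as negative controls.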
row,Binder,enrichment score
1,DSFWSYCNAVA [SLC20A2_Y436_S434W_YF],inactive: 0.792
2,LRSKQYLRNPP [SHC1_Y315_F312S],inactive: 0.69
3,AKKVFYVIETR [SHH_Y253],inactive: 2.13
4,YIIFIYAMKKK [SLCO1B1_Y645_L643F],inactive: 1.92
5,LRNRVYEVPVE [SLC26A3_Y756],inactive: 0.581
6,DAVAVCHGKIS [SH2D1A_Y7_Y7C],inactive: 0.819
7,FPHVIYARLWR [SMAD4_Y95],inactive: 0.289
8,LLREWYVQDPY [SIX3_Y225_L226V],inactive: 1.81
9,THEVRYISAGQ [SLCO4A1_Y77_V78I],inactive: 0.666
10,LLRFLYFFVCS [SLC34A2_Y109_G106R],active: 3.64
11,VYLGAYDHFLP [SLC22A5_Y486_R488H],inactive: 1.77
12,IYLGAYDRFLP [SLC22A5_Y486_V481I],inactive: 1.73
13,DSYSSYCNAVA [SLC20A2_Y436],inactive: 0.794
14,EHFSFYGMKAV [SLC15A2_Y61_R57H_YF],inactive: 0.839
15,LRFDSYSSFCN [SLC20A2_Y433_YF],inactive: 0.818
16,ELAINYQEQAS [SLC9A9_Y591],inactive: 0.513
17,LRSRVYEVPVE [SLC26A3_Y756_N753S],inactive: 0.589
18,YIILIYAMKKK [SLCO1B1_Y645],inactive: 2.01
19,LFRFGYANTSE [SI_Y1233_C1229Y_YF],inactive: 1.93

# Target: SHP2 C-SH2 domain wild-type
# Test: as above
# Conditions: peptide library: pTyr-Var
row,Binder,enrichment score
1,DSFWSYCNAVA [SLC20A2_Y436_S434W_YF],inactive: 0.964
2,LRSKQYLRNPP [SHC1_Y315_F312S],inactive: 0.487
3,AKKVFYVIETR [SHH_Y253],inactive: 2.07
4,YIIFIYAMKKK [SLCO1B1_Y645_L643F],inactive: 1.22
5,LRNRVYEVPVE [SLC26A3_Y756],inactive: 0.718
6,DAVAVCHGKIS [SH2D1A_Y7_Y7C],inactive: 0.863
7,FPHVIYARLWR [SMAD4_Y95],inactive: 0.291
8,LLREWYVQDPY [SIX3_Y225_L226V],inactive: 1.69
9,THEVRYISAGQ [SLCO4A1_Y77_V78I],inactive: 0.813
10,LLRFLYFFVCS [SLC34A2_Y109_G106R],active: 3.57
11,VYLGAYDHFLP [SLC22A5_Y486_R488H],active: 3.52
12,IYLGAYDRFLP [SLC22A5_Y486_V481I],inactive: 1.95
13,DSYSSYCNAVA [SLC20A2_Y436],inactive: 0.708
14,EHFSFYGMKAV [SLC15A2_Y61_R57H_YF],inactive: 0.802
15,LRFDSYSSFCN [SLC20A2_Y433_YF],inactive: 0.883
16,ELAINYQEQAS [SLC9A9_Y591],inactive: 0.62
17,LRSRVYEVPVE [SLC26A3_Y756_N753S],inactive: 0.584
18,YIILIYAMKKK [SLCO1B1_Y645],inactive: 1.62
19,LFRFGYANTSE [SI_Y1233_C1229Y_YF],inactive: 1.13

# Target: SHP2 N-SH2 domain L43F
# Test: as above
# Conditions: peptide library: pTyr-Var
row,Binder,enrichment score
1,DSFWSYCNAVA [SLC20A2_Y436_S434W_YF],inactive: 0.816
2,LRSKQYLRNPP [SHC1_Y315_F312S],inactive: 0.474
3,AKKVFYVIETR [SHH_Y253],inactive: 2.04
4,YIIFIYAMKKK [SLCO1B1_Y645_L643F],inactive: 1.36
5,LRNRVYEVPVE [SLC26A3_Y756],inactive: 0.802
6,DAVAVCHGKIS [SH2D1A_Y7_Y7C],inactive: 0.574
7,FPHVIYARLWR [SMAD4_Y95],inactive: 0.301
8,LLREWYVQDPY [SIX3_Y225_L226V],inactive: 1.58
9,THEVRYISAGQ [SLCO4A1_Y77_V78I],inactive: 0.731
10,LLRFLYFFVCS [SLC34A2_Y109_G106R],inactive: 2.92
11,VYLGAYDHFLP [SLC22A5_Y486_R488H],inactive: 1.47
12,IYLGAYDRFLP [SLC22A5_Y486_V481I],inactive: 1.61
13,DSYSSYCNAVA [SLC20A2_Y436],inactive: 0.556
14,EHFSFYGMKAV [SLC15A2_Y61_R57H_YF],inactive: 0.668
15,LRFDSYSSFCN [SLC20A2_Y433_YF],inactive: 0.981
16,ELAINYQEQAS [SLC9A9_Y591],inactive: 0.71
17,LRSRVYEVPVE [SLC26A3_Y756_N753S],inactive: 0.764
18,YIILIYAMKKK [SLCO1B1_Y645],inactive: 1.38
19,LFRFGYANTSE [SI_Y1233_C1229Y_YF],inactive: 1.65

# Target: SHP2 N-SH2 domain T42A
# Test: as above
# Conditions: peptide library: pTyr-Var
row,Binder,enrichment score
1,DSFWSYCNAVA [SLC20A2_Y436_S434W_YF],inactive: 0.711
2,LRSKQYLRNPP [SHC1_Y315_F312S],inactive: 0.493
3,AKKVFYVIETR [SHH_Y253],inactive: 1.93
4,YIIFIYAMKKK [SLCO1B1_Y645_L643F],inactive: 1.16
5,LRNRVYEVPVE [SLC26A3_Y756],inactive: 0.678
6,DAVAVCHGKIS [SH2D1A_Y7_Y7C],inactive: 0.677
7,FPHVIYARLWR [SMAD4_Y95],inactive: 0.399
8,LLREWYVQDPY [SIX3_Y225_L226V],inactive: 1.66
9,THEVRYISAGQ [SLCO4A1_Y77_V78I],inactive: 0.704
10,LLRFLYFFVCS [SLC34A2_Y109_G106R],inactive: 2.33
11,VYLGAYDHFLP [SLC22A5_Y486_R488H],inactive: 2.3
12,IYLGAYDRFLP [SLC22A5_Y486_V481I],inactive: 1.85
13,DSYSSYCNAVA [SLC20A2_Y436],inactive: 0.499
14,EHFSFYGMKAV [SLC15A2_Y61_R57H_YF],inactive: 0.764
15,LRFDSYSSFCN [SLC20A2_Y433_YF],inactive: 0.809
16,ELAINYQEQAS [SLC9A9_Y591],inactive: 0.576
17,LRSRVYEVPVE [SLC26A3_Y756_N753S],inactive: 0.691
18,YIILIYAMKKK [SLCO1B1_Y645],inactive: 2.01
19,LFRFGYANTSE [SI_Y1233_C1229Y_YF],inactive: 1.52

# Target: SHP2 N-SH2 domain T52S
# Test: as above
# Conditions: peptide library: pTyr-Var
row,Binder,enrichment score
1,DSFWSYCNAVA [SLC20A2_Y436_S434W_YF],inactive: 0.822
2,LRSKQYLRNPP [SHC1_Y315_F312S],inactive: 0.466
3,AKKVFYVIETR [SHH_Y253],inactive: 2.41
4,YIIFIYAMKKK [SLCO1B1_Y645_L643F],inactive: 1.75
5,LRNRVYEVPVE [SLC26A3_Y756],inactive: 0.606
6,DAVAVCHGKIS [SH2D1A_Y7_Y7C],inactive: 0.642
7,FPHVIYARLWR [SMAD4_Y95],inactive: 0.227
8,LLREWYVQDPY [SIX3_Y225_L226V],inactive: 2.16
9,THEVRYISAGQ [SLCO4A1_Y77_V78I],inactive: 0.654
10,LLRFLYFFVCS [SLC34A2_Y109_G106R],inactive: 2.98
11,VYLGAYDHFLP [SLC22A5_Y486_R488H],inactive: 1.75
12,IYLGAYDRFLP [SLC22A5_Y486_V481I],inactive: 1.48
13,DSYSSYCNAVA [SLC20A2_Y436],inactive: 0.635
14,EHFSFYGMKAV [SLC15A2_Y61_R57H_YF],inactive: 0.946
15,LRFDSYSSFCN [SLC20A2_Y433_YF],inactive: 0.658
16,ELAINYQEQAS [SLC9A9_Y591],inactive: 0.559
17,LRSRVYEVPVE [SLC26A3_Y756_N753S],inactive: 0.805
18,YIILIYAMKKK [SLCO1B1_Y645],inactive: 2.19
19,LFRFGYANTSE [SI_Y1233_C1229Y_YF],inactive: 1.63

# Target: SHP2 N-SH2 domain wild-type
# Test: as above
# Conditions: peptide library: pTyr-Var
row,Binder,enrichment score
1,DSFWSYCNAVA [SLC20A2_Y436_S434W_YF],inactive: 1.04
2,LRSKQYLRNPP [SHC1_Y315_F312S],inactive: 0.49
3,AKKVFYVIETR [SHH_Y253],inactive: 2.12
4,YIIFIYAMKKK [SLCO1B1_Y645_L643F],inactive: 1.11
5,LRNRVYEVPVE [SLC26A3_Y756],inactive: 0.689
6,DAVAVCHGKIS [SH2D1A_Y7_Y7C],inactive: 1.16
7,FPHVIYARLWR [SMAD4_Y95],inactive: 0.271
8,LLREWYVQDPY [SIX3_Y225_L226V],inactive: 1.9
9,THEVRYISAGQ [SLCO4A1_Y77_V78I],inactive: 0.959
10,LLRFLYFFVCS [SLC34A2_Y109_G106R],inactive: 2.72
11,VYLGAYDHFLP [SLC22A5_Y486_R488H],inactive: 1.64
12,IYLGAYDRFLP [SLC22A5_Y486_V481I],inactive: 1.11
13,DSYSSYCNAVA [SLC20A2_Y436],inactive: 0.438
14,EHFSFYGMKAV [SLC15A2_Y61_R57H_YF],inactive: 0.964
15,LRFDSYSSFCN [SLC20A2_Y433_YF],inactive: 0.831
16,ELAINYQEQAS [SLC9A9_Y591],inactive: 0.849
17,LRSRVYEVPVE [SLC26A3_Y756_N753S],inactive: 0.694
18,YIILIYAMKKK [SLCO1B1_Y645],inactive: 1.2
19,LFRFGYANTSE [SI_Y1233_C1229Y_YF],inactive: 1.3
